Like-named read-outs stand apart in the source and are kept apart here.
System: HBEGF locus
Assay type: cell-based, human
Conditions: high-throughput screen of dXR repression of the HBEGF gene
[1] = abundance of each domain in the library before vs after diphtheria toxin selection, listed domains met p-value <0.01 and log2(fold change) >2

B1: DOMAIN_23575 (protein, listed as Erinaceus europaeus)
chain: KPAAVRFADVAVYFSPEEWGCLRPAQRTLYRDVMRETYGHLGALGFPGPKPALISWMEQESEVWSPAAQDPEEGESLGGAR
Log2 (fold change) [1]: 3.4624

B2: DOMAIN_24028 (protein)
chain: KPGAVSFADVAVYFSPEEWGCLRPAQRALYRDVMRETYGHLGALGFPGPKPALISWMEQESEAWSPDAQDPEEGESLGGAL
modifications: Ursus arctos
Log2 (fold change) [1]: 3.8797

B3: DOMAIN_23953 (protein, listed as Muntiacus reevesi)
chain: AQGSVMFTDVSIDFSQEEWEFLNPDQRDLYKDVMLENYSNLVSMGLYIPKPQVISLLEQGKEPWMIGRELTRGLCSALESM
Log2 (fold change) [1]: 2.4156

B4: DOMAIN_23480 (protein, listed as Odobenus rosmarus)
chain: SQSLVTFGDVAVDFSQEEWEWLNSAQRNLYRSVMLENYRNLVSLGLCVSKPDVISSLEQRKEPWMVKRKLTRGRCPDLKTV
Log2 (fold change) [1]: 3.4432

B5: DOMAIN_23854 (protein)
chain: SQSLVTFGDVAVDFSREEWEWLSSAQRNLYRTVMLENYRNLVSLGLCISKPEMISSLEQRKEPWMAKRRLTRGRCPDLKIV
modifications: Gulo gulo
Log2 (fold change) [1]: 3.838

B6: DOMAIN_23745 (protein, listed as Myotis brandtii)
chain: MVFEDVAVYFSREEWGLLDSAQRALYRQVMLENFALVASLGLSASRPRIILQLERGEEPWVLSGLDVALARDAQRRPSPAQ
Log2 (fold change) [1]: 3.4544

B7: DOMAIN_23916 (protein, listed as Odobenus rosmarus)
chain: FQGSVTFRDVAIDFSQEEWEWLQPAQRDLYRHVMLENYGHLVSLGLDISKPYVVSLLEQGREPWLVKGDVRRDPFSVSESN
Log2 (fold change) [1]: 3.3232

B8: DOMAIN_23711 (protein)
chain: AQELVTFKDIAIDFTQEEWALLDTSQRQLYRDVMLENISHLVSVGYHLCKSDVISQLEQGVELWRDGREFLQGLNPDRKSG
modifications: Gulo gulo
Log2 (fold change) [1]: 2.658

B9: DOMAIN_23494 (protein, listed as Mustela putorius)
chain: QAEVTFEDVAVLFSREEWGRLGPAQRGLYRDVMLETYRNLVSLGAGPAGPKPGVITQLERGDEPWVLDAQGAEGKERLRVS
Log2 (fold change) [1]: 3.847

B10: DOMAIN_24152 (protein, listed as Vombatus ursinus)
chain: FWESVTFQDVAVDFTWEEWGHLGPAQKELYREVMLENYRNLVCLGLAVSKPDVICQLEQGGAPWWPEGGVPGSSCAVWDTR
Log2 (fold change) [1]: 3.3664

B11: DOMAIN_23654 (protein, listed as Carlito syrichta)
chain: MTFSDVAVDFSQQEWECLDPVQKTLYRDVMMENYGNLVSLGHSISKPDVIALLEQGKEPWVVTKEETRRCCTDLESRYEII
Log2 (fold change) [1]: 2.337

B12: DOMAIN_23641 (protein, listed as Carlito syrichta)
chain: VSFEDVAVYFTQEEWTLLDSAQRDLYRDVMLETCENLASIGNLLNHSVMYWLEGEENLGTVQEGDPQEWRLKTKGSTLRPD
Log2 (fold change) [1]: 2.6942

B13: DOMAIN_23680 (protein)
chain: AHGSVMFSDVSIVFSQEEWEYLDLKQRDLYRDVMLENYSNLVSLGCFISKPDVISLLEQGKEPWKVMRKGRGRYPDLETRY
modifications: Vicugna pacos
Log2 (fold change) [1]: 2.712

B14: DOMAIN_23931 (protein)
chain: AHGSVMFNDVSIVFSQEEWEYLDLEQRDLYRDVMLENYSNLVSLGCFISKPDVISLLEQGKEPWKVVRKGRRQYPDLETRY
modifications: Gulo gulo
Log2 (fold change) [1]: 3.8077

B15: DOMAIN_24020 (protein, listed as Rhinolophus ferrumequinum)
chain: AHGSVMFSDVSVVFSQEEWDYLDVEQRDLYRDVMLENYNNLVSLGCFISKPDVISLLEQGKEPWKVVRKERRRYPDLETRH
Log2 (fold change) [1]: 3.1125

B16: DOMAIN_759 (protein, listed as Pan paniscus)
chain: MFQTAWRQEPVTFEDVAVYFTQNEWASLDSVQRALYREVMLENYANVASLAFPFTTPVLVSQLEQGELPWGLDPWEPMGRE
Log2 (fold change) (change in abundance of each domain in the library before and after diphtheria toxin selection): 3.3019

B17: DOMAIN_23898 (protein, listed as Mustela putorius)
chain: LQGQLTFRDVAIEFSEEEWRCLTHTQRQLYRDMMLENYRHLLFLGLIVSKPDLVSFLEQKKDPWDVKRKKTVVFDPGRWEW
Log2 (fold change) [1]: 2.7383

B18: DOMAIN_23458 (protein)
chain: MFQVTFSDVAIDFSHEEWGWLDSAQRDLYKDVMVQNYENLVSLGLSIPKPNVIALLEEGKDPWMVERKLSTGMFPDWDSRW
modifications: Vicugna pacos
Log2 (fold change) [1]: 2.4232

B19: DOMAIN_23604 (protein)
chain: MFQVTFSDVAIDFSHEEWGWLDSAQRDLYKDVMVQNYENLVSLGLSIPKPNVIALLEEGKDPWMVERKLSTDWDSRWENKE
modifications: Vicugna pacos
Log2 (fold change) [1]: 2.6984

B20: DOMAIN_23827 (protein, listed as Odobenus rosmarus)
chain: MPVTFEDVAVTFTQEEWGQLDPAQRTLYQEVMLETCGLLVSLGCPLPKPELFYPLDHSPELHTLKRGLSPNSCPGDSTKPG
Log2 (fold change) [1]: 2.3013

B21: DOMAIN_23642 (protein)
chain: QPQEAVTFKDVEVTFSQDEWGWLDASQRNLYRDVMLENYGNVTSLVGPFTKPALISWLEAREPWGLNVQGAHPKGSPSAAP
modifications: Delphinapterus leucas
Log2 (fold change) [1]: 3.8829

B22: DOMAIN_23590 (protein, listed as Odobenus rosmarus)
chain: ARGLVTFEDVAVYFSREEWGLLNLTQRSLYRDVMLENFALIGSLGFAPSRSHVVAQLESEEELWVPSMVDLTLGSRAEARR
Log2 (fold change) [1]: 2.8653

B23: DOMAIN_23731 (protein, listed as Colobus angolensis)
chain: EMGLLTFRDIAIEFSLAEWQCLDHAQRNLYRDVMLENYRNLVSLGVAVSKPDLITCLEHNKEPRNIKRNEMVSKHPVTCSH
Log2 (fold change) [1]: 3.1609

B24: DOMAIN_23561 (protein, listed as Colobus angolensis)
chain: YQTPVSFKDVVVGFTQEEWHWLSPAQRALYRDVMLETYSNLVSVGYEGTKPDVILRLEQEEAPWIGEAACPGCHCWGISKL
Log2 (fold change) [1]: 3.2392

B25: DOMAIN_24113 (protein, listed as Propithecus coquereli)
chain: YQTPVSFKDVVVGFTQEEWHRLSPAQRALYRDVMLETYSNLVSVGYEGTKPDVILRLEQEEAPWICEVACPGCHRWEDIWQ
Log2 (fold change) [1]: 3.3264

B26: DOMAIN_23574 (protein)
chain: QGSVTFRDVAIDFSQEEWEWLQPAQRDLYRHVMLENYGHLVSLGLNISKPYVVSLLEQGRDPWLEKDVRRDLFSESSGEIR
modifications: Gulo gulo
Log2 (fold change) [1]: 2.939

B27: DOMAIN_23576 (protein, listed as Erinaceus europaeus)
chain: SKAPVTFGDLAVYFTQAEWEWLSPVQKALYQDVMLENYQVLVSLGLCLRRPNLISLLEKGKAPWVAEPVRRRRGPDSASKF
Log2 (fold change) [1]: 3.8014

B28: DOMAIN_23508 (protein, listed as Mustela putorius)
chain: IQEPVTFKDVAVDFTQEEWGQLDSVQRTLYRDVMLETYGHLLSVGNHIAKPEVISLLEQGEEPWSVEQAYPQSTCPEWMRN
Log2 (fold change) [1]: 2.3582

B29: DOMAIN_24042 (protein, listed as Propithecus coquereli)
chain: VQEPVTFKDVAVDFTQEEWGQLDLVQRTLYRDVMLETYGHLLSVGNQITKPEVISLLEQGEEPWSVEQAYPQSTCPEWMRN
Log2 (fold change) [1]: 3.3038

B30: DOMAIN_23793 (protein, listed as Odobenus rosmarus)
chain: AWAPLSFEDVAVGFSWEEWQLLAPSQKDLYRDVMLENYRNLVSVGYQASKPDSVFQLEQGEPPWIVEGAAQSQTCQEEIWE
Log2 (fold change) [1]: 2.7573

B31: DOMAIN_23863 (protein, listed as Mustela putorius)
chain: RPELVTFEDVAVYFSENEWTSLAPTQRVLYRDVMLENYGAVASLAVPFPKPALISQLERGEAPWCKAPQGALDGEGPRGIS
Log2 (fold change) [1]: 2.8758

B32: DOMAIN_23709 (protein, listed as Carlito syrichta)
chain: AHRSVMFNDVSIDFSREEWEYLNLEQRDLYRDVMLENYSNLVSLGYFISKPDVISLLEQGEEPWKVVRKGRRRYPDLKTNY
Log2 (fold change) [1]: 4.545

B33: DOMAIN_23979 (protein, listed as Balaenoptera acutorostrata)
chain: SQESVSFEDVAVYFTQNQWASLASAQRTLYREVMLENYANVTSLAAFPFPKPDLIFQLERGEAPGGLDPWTSIRREVRGVC
Log2 (fold change) [1]: 4.0461

B34: DOMAIN_23885 (protein, listed as Colobus angolensis)
chain: ELVMFRDVAIDVSQEEWECLNPAQRNLYKEVMLENYSNLVSLGLSVSKPAVISSLEQGKEPWMFVREETGRWCSDLASRDE
Log2 (fold change) [1]: 3.033

B35: DOMAIN_23513 (protein, listed as Tupaia chinensis)
chain: EQVTFKDVAIEFSKTEWKRLDPAQRALYREVMLENYRNLVSVGTSPPDVTVISMLEQGEEPWTAESRVQRPEVPGGREWTQ
Log2 (fold change) [1]: 3.2927

B36: DOMAIN_23895 (protein, listed as Mustela putorius)
chain: FQGSVTFRDVAIDFSQEEWEWLQPAQRDLYRHVMLENYGHLVSLGLNISKPHVVSLLEQGRDPWPDNGAVGGGLFSESKGE
Log2 (fold change) [1]: 2.6148

B37: DOMAIN_23940 (protein, listed as Homo sapiens)
chain: AHALVTFRDVAIDFSQKEWECLDTTQRKLYRDVMLENYNNLVSLAGYSGSKPDVITLLEQGKEPCVVARDVTGRQCPGLLS
Log2 (fold change) [1]: 2.5087

Reference: patent US12551573B2, “Compositions and methods for the targeting of PCSK9” (Scribe Therapeutics Inc., priority 2022, dated 2026)
